PMC7819943, “Rice protein-binding microarrays: a tool to detect cis-acting elements near promoter regions in rice”
This is one part of the list.

Target: T1, OsWOX13 (Oryza sativa, UniProt Q5QMM3 1-267)
T1 sequence: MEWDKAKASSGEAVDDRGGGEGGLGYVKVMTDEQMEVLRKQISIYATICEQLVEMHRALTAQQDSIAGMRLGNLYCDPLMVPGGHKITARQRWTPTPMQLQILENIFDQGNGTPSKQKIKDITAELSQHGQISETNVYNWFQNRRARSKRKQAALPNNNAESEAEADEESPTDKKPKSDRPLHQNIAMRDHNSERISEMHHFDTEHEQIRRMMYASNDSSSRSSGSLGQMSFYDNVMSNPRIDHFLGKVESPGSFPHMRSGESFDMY
Assay: protein-binding microarray (RPBM); PBS, 2% BSA, 51.3 ng/ul salmon testes DNA, 50 uM zinc acetate, 200 nM TF, 25 C, 1 h; high values mean tight binding
Conditions: protein: recombinant; tags: N-terminal polyhistidine and DsRed monomer fusion (pET32a); label: CyDye5-dUTP incorporated in the synthesized complementary strand; 3' TTTTT single-stranded linker to array surface; dsDNA, one strand shown
In short: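 Ni–NTA purification followed expression in E. coli BL21-CodonPlus of transcription factors fused N-terminally to a polyhistidine tag and DsRed. At 200 nM in PBS with 2% BSA, salmon testes DNA and 50 µM zinc acetate, the protein was incubated for 1 h at 25 °C with a custom Agilent array that had been primer-extended with Cy5-dUTP and blocked with 2% BSA. After washing, the array was read on an Axon 4000B scanner. The binding signal is per-feature fluorescence intensity in arbitrary units.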

Sequence | binding signal
TGTGGAATTAATTTTGATCTTCTTGTTTCTGCAGTTGTCCCGGAGTCACCTAGTGCAG | 20000 fluorescence intensity (a.u.)
ATCCTCAATCAGACGGCCAAACAGAAAGGGTTAATCAATGCGGAGTCACCTAGTGCAG | 23300 fluorescence intensity (a.u.)
GTAGTAGATAAATTGATTTGTATGGTTTCTAGAGAAGGGACGGAGTCACCTAGTGCAG | 25300 fluorescence intensity (a.u.)
AAACGCATTGATTGCGCGGCGACGCGAGCCACAGCCACAGCGGAGTCACCTAGTGCAG | 16700 fluorescence intensity (a.u.)
CAAAACAAATTACAGATTCCGCCTATAAACTACGAGACGACGGAGTCACCTAGTGCAG | 6380 fluorescence intensity (a.u.)
AATAATTGGCACTGCTCCATTAACGTTTTATTACTGACATCGGAGTCACCTAGTGCAG | 45700 fluorescence intensity (a.u.)
TGGGATAATTATTTTCTTTATGTTTCTGAATGAATAGATACGGAGTCACCTAGTGCAG | 22600 fluorescence intensity (a.u.)
GCCACTGATTGTGGAGGGTGTGGATTTGGATTTACGCATGCGGAGTCACCTAGTGCAG | 20000 fluorescence intensity (a.u.)
ATAATTTGTTTGTGAGTGCTCTAAGAATATGTAGCTGCTCCGGAGTCACCTAGTGCAG | 5000 fluorescence intensity (a.u.)
ATGTCTCTTTCCTTTCAATCAAAACAACTTCCACCACGAGCGGAGTCACCTAGTGCAG | 7500 fluorescence intensity (a.u.)
ACCAGTTTTGTTGTCCGTAATTGGTGCTTCTATCTTTGCCCGGAGTCACCTAGTGCAG | 3790 fluorescence intensity (a.u.)
CTATCAAATTCCAATCAGTGGCTGCTGCATCCAGTCAATACGGAGTCACCTAGTGCAG | 14300 fluorescence intensity (a.u.)
CGGGTAATTAAAACCAATTTAGCTCTCGTTCGTCAGCGCCCGGAGTCACCTAGTGCAG | 29100 fluorescence intensity (a.u.)
TTAATTAGTTCTTCCATTTCCACAACTACTCCATATTTCCCGGAGTCACCTAGTGCAG | 4850 fluorescence intensity (a.u.)
GATCATTACGGTACCTTGATTTATCCTTTATAAATCTCAGCGGAGTCACCTAGTGCAG | 9130 fluorescence intensity (a.u.)
GAATGATCAATTTTGACGAGTTTAAAGTCATGATGCAAGGCGGAGTCACCTAGTGCAG | 10400 fluorescence intensity (a.u.)
CTTAATTCAGCATCACTAATTTGTATGAATTTCATATTCCCGGAGTCACCTAGTGCAG | 15500 fluorescence intensity (a.u.)
ACTGATTGATTGCCCTGATGGCAATTTTATATGGTTAATACGGAGTCACCTAGTGCAG | 38400 fluorescence intensity (a.u.)
CTCTAAATTATTTCTTCGAAAAGGACTCGGACATCCTATTCGGAGTCACCTAGTGCAG | 9370 fluorescence intensity (a.u.)
TATCAATAAACTAATTGTCAATTTGCCATGAGGTTTAAACCGGAGTCACCTAGTGCAG | 15300 fluorescence intensity (a.u.)
ATTTGCACATGATTGATCACAAGTTGTGATTCACAAATCACGGAGTCACCTAGTGCAG | 22100 fluorescence intensity (a.u.)

Sequence | binding signal
GCCAAATTAGATGGAAAGTTGGTTATATAGGTGTTTATATCGGAGTCACCTAGTGCAG | 29100 fluorescence intensity (a.u.)
ATCATTGGATTGGTATTTCAATATATTTTCATATGTTATACGGAGTCACCTAGTGCAG | 3500 fluorescence intensity (a.u.)
AAAATTAATGAAAATGTTTATTTTGACAGTATGAATATGCCGGAGTCACCTAGTGCAG | 17100 fluorescence intensity (a.u.)
GCTATATTGGTATAATATGATAATCTCCTCTAAAGGTGTTCGGAGTCACCTAGTGCAG | 3240 fluorescence intensity (a.u.)
GTGCAATTTAACTCCATAAATTACTTTCAGAAATGTGCAGCGGAGTCACCTAGTGCAG | 11300 fluorescence intensity (a.u.)
TCAATATAAATTAACTTTGCTACACGAATCTTAATATAGGCGGAGTCACCTAGTGCAG | 5040 fluorescence intensity (a.u.)
AATCATCGCTCTTAATTATGATCTACCTACTTTATGTCTGCGGAGTCACCTAGTGCAG | 5190 fluorescence intensity (a.u.)
ATTCACCTGCTTTAATTTGCATCGATCCCAACTTAAACTGCGGAGTCACCTAGTGCAG | 4250 fluorescence intensity (a.u.)
AGATAAATTGCATTCATGATACTTTGTGCTTGTACTTGACCGGAGTCACCTAGTGCAG | 27100 fluorescence intensity (a.u.)
CATTAATTTACGCGCTAAATCACCGGTTAGGCCTCGTTTACGGAGTCACCTAGTGCAG | 29200 fluorescence intensity (a.u.)
CCATGAGATTGAGACCAGCCAAAGCCCAAGCAGCTTGCATCGGAGTCACCTAGTGCAG | 14800 fluorescence intensity (a.u.)
ATCAAATTATTATTGTCAAGGGGATGAAAGGAAAAGAATACGGAGTCACCTAGTGCAG | 4590 fluorescence intensity (a.u.)
TAGTTAATTAGGAAAGGAAAACTAATGTACCATGACTGTTCGGAGTCACCTAGTGCAG | 19100 fluorescence intensity (a.u.)
GACATAGACAGAAAATTAAGAAGAATAACACGGTGTTCGTCGGAGTCACCTAGTGCAG | 12400 fluorescence intensity (a.u.)
ATATATAGATTATTTTGACTTGAAATTGTGAAATTACTCTCGGAGTCACCTAGTGCAG | 5960 fluorescence intensity (a.u.)
TCCTAACCAATAATTAACAAATCCTTGCAGATGGTTTGGACGGAGTCACCTAGTGCAG | 29800 fluorescence intensity (a.u.)
TATATTCAATTATTGATTTGATAAAACTAATTTAGTATTACGGAGTCACCTAGTGCAG | 24300 fluorescence intensity (a.u.)
CCGAGATTTTGTTTGCATGGTGATTAGAATCACCGAAGCCCGGAGTCACCTAGTGCAG | 12400 fluorescence intensity (a.u.)
ATATATATCACAGTATAAGATTGGCGGCGGCGGCTTACATCGGAGTCACCTAGTGCAG | 4020 fluorescence intensity (a.u.)
CGATTGTCAATTCTTCGCAATCATAGATGCTAGCTAGCTTCGGAGTCACCTAGTGCAG | 4020 fluorescence intensity (a.u.)
CTAGCTGATGGATGACTAATTTAGTTTAATTAAGTCCAAACGGAGTCACCTAGTGCAG | 35100 fluorescence intensity (a.u.)

Sequence | binding signal
TGTAACAAATTAGATTATCCCATTTGTCTGACGTTGCCTGCGGAGTCACCTAGTGCAG | 27100 fluorescence intensity (a.u.)
ATCTAAATTTGAGAATCTGATCAAACCCAGACTTAAACTACGGAGTCACCTAGTGCAG | 3970 fluorescence intensity (a.u.)
AACTATATAAATTGAGAAATTAATGGTCAGAATTACGAATCGGAGTCACCTAGTGCAG | 5510 fluorescence intensity (a.u.)
GGCACATTGTGATTGAATCTTGGATCGAGGCTGGACTTCCCGGAGTCACCTAGTGCAG | 22600 fluorescence intensity (a.u.)
TATTGATTTGATAAAACTAATTTAGCATTATAAATATTATCGGAGTCACCTAGTGCAG | 21300 fluorescence intensity (a.u.)
TTTCTGATTTTGTTTTGCTATTGTTTTGTTTGTCTTGTTTCGGAGTCACCTAGTGCAG | 12100 fluorescence intensity (a.u.)
CTACTAGAGTAATAATAACGTAATTACAGATCAAGGTTGGCGGAGTCACCTAGTGCAG | 4430 fluorescence intensity (a.u.)
ATGAAAATTATACAGATTTGTGAAATTTTACACGATAGTTCGGAGTCACCTAGTGCAG | 14700 fluorescence intensity (a.u.)
TATTAATTCCCTTAAAGATTTGCAAAGCTTACCACTGTACCGGAGTCACCTAGTGCAG | 4810 fluorescence intensity (a.u.)
TCTATAATAATAATTGTGACTGCTGCACTATACGGAGGCTCGGAGTCACCTAGTGCAG | 11200 fluorescence intensity (a.u.)
CATCTATTTCGACAATGTGATTTCACATGACAGACTTGGGCGGAGTCACCTAGTGCAG | 3250 fluorescence intensity (a.u.)
GCGCGTGTGATTATAGGGGTGAATATGTATACGCTCACCTCGGAGTCACCTAGTGCAG | 6220 fluorescence intensity (a.u.)
TTATTCAGATAATTTGATGATGATGAAAGCAGAAGCTTTGCGGAGTCACCTAGTGCAG | 8570 fluorescence intensity (a.u.)
GTCAATACATGATTGAGTTTGAATTAATAACTTTTAAATTCGGAGTCACCTAGTGCAG | 21300 fluorescence intensity (a.u.)
ATAATTATACATTTGCTGTATTTGACATATTTTAAGGGGACGGAGTCACCTAGTGCAG | 14100 fluorescence intensity (a.u.)
CAAGTTAATTTGTATGGCATTTTGGATGACATGCAAAAGTCGGAGTCACCTAGTGCAG | 23100 fluorescence intensity (a.u.)
GTGATGGATGAAACCGCGTGGTGACGGAATTGGACAGCGCCGGAGTCACCTAGTGCAG | 3710 fluorescence intensity (a.u.)
AAGTTATTTGACTTTATTAATTAGTCAAGATTCTTTAGGTCGGAGTCACCTAGTGCAG | 9300 fluorescence intensity (a.u.)
AACCTTGTAGTAATTAGTTGTGATTTCTTTGAAGTGAAGACGGAGTCACCTAGTGCAG | 10300 fluorescence intensity (a.u.)
TAAACTAGACTGAATTTAATAACAAATTTAAACGTGTACTCGGAGTCACCTAGTGCAG | 10700 fluorescence intensity (a.u.)
ATTCGATTTTCACATTAATTGGTTGCCAAATTTATTAATTCGGAGTCACCTAGTGCAG | 16800 fluorescence intensity (a.u.)

Sequence | binding signal
TTCATTAAATTTAACGTTGACTATATTTTAATACAATATTCGGAGTCACCTAGTGCAG | 9980 fluorescence intensity (a.u.)
AGCTTACGTAATTACGTTTCGGTTTAAAGTTTACGTAAAGCGGAGTCACCTAGTGCAG | 14700 fluorescence intensity (a.u.)
TCAACGAAACTGACGGCAATCACGTTGGGCTCGACATCAACGGAGTCACCTAGTGCAG | 7620 fluorescence intensity (a.u.)
TGTCCGTAATTACTAATTAGGTGATGTGCTCAGTGAGTGCCGGAGTCACCTAGTGCAG | 43700 fluorescence intensity (a.u.)
TTGATTGCACAACAAGGGTGTCGCCGGCGGCATCTCATCACGGAGTCACCTAGTGCAG | 4000 fluorescence intensity (a.u.)
TCCCATCTAAAATCATATATAATTATATATAATGTAATCCCGGAGTCACCTAGTGCAG | 10800 fluorescence intensity (a.u.)
GAGTAATAGATTTTACCACATTGATAGTATTGACCAACTACGGAGTCACCTAGTGCAG | 8420 fluorescence intensity (a.u.)
AATAATTAGTTTTAAACATCATATCATAAGTCCACCACAACGGAGTCACCTAGTGCAG | 21200 fluorescence intensity (a.u.)
GTGATCATTAGTGAGTTTGATTAGTTGATTTTGTTGGGGTCGGAGTCACCTAGTGCAG | 16100 fluorescence intensity (a.u.)
AGGTTAATTTGGAGCGTCACGGGCTAGTTCCGATCGGTACCGGAGTCACCTAGTGCAG | 21100 fluorescence intensity (a.u.)
AGAGATTGAGCAAAATTCAGGGGTACAGAAGGGATTAGGTCGGAGTCACCTAGTGCAG | 8990 fluorescence intensity (a.u.)
TATAGACAAAATTATTATATTTTGGAACCAAAGGGAGTAGCGGAGTCACCTAGTGCAG | 4510 fluorescence intensity (a.u.)
AATCAAAATTATTATTTCTTGTGTTGTCAACTCGTCACCCCGGAGTCACCTAGTGCAG | 3700 fluorescence intensity (a.u.)
AACTAATTTCATAACTTACTTGGAAACCGCGAGACAAATGCGGAGTCACCTAGTGCAG | 5900 fluorescence intensity (a.u.)
CTAAATTTGTAAACATTGTCTTGATATTTCTTTGTTTCCTCGGAGTCACCTAGTGCAG | 13700 fluorescence intensity (a.u.)
TGGCTCAAATCTAATTGCAATTAACAATAATCATTTATAGCGGAGTCACCTAGTGCAG | 27400 fluorescence intensity (a.u.)
CATTAAATTAAGGGGTAATATGCATAATAGGTTGCCTCTACGGAGTCACCTAGTGCAG | 14600 fluorescence intensity (a.u.)
TCTTCTGTAATTTCTGTCAATACTCCTTCCATGATTTGCTCGGAGTCACCTAGTGCAG | 9320 fluorescence intensity (a.u.)
AGCCCGTAAATTACTCATACGTAATATTGTCAACCTAGGCCGGAGTCACCTAGTGCAG | 6680 fluorescence intensity (a.u.)
TATATATATATATATATATATATATATATATATGGGGTAACGGAGTCACCTAGTGCAG | 29700 fluorescence intensity (a.u.)
GTTTTAAATTATAGTGGATCGAACAATTGTCAACACCTGTCGGAGTCACCTAGTGCAG | 5920 fluorescence intensity (a.u.)
